These are yes or no findings as the source states them, for the method shown. Binding seen in cells or lysates may run through a third protein.
Target: HA-STAT3 Y705F (UniProt P40763)
Assay: co-IP; tagged proteins co-transfected (HEK293T where stated); lysates precipitated with anti-HA, anti-Flag or anti-Myc, immunoblot

The chains behind the UniProt entries cited, without tags or fusion partners. Where a name states a change or a piece, a line headed by the entry shows the natural chain unless it says otherwise. Residues count along the entry.
UniProt P40763: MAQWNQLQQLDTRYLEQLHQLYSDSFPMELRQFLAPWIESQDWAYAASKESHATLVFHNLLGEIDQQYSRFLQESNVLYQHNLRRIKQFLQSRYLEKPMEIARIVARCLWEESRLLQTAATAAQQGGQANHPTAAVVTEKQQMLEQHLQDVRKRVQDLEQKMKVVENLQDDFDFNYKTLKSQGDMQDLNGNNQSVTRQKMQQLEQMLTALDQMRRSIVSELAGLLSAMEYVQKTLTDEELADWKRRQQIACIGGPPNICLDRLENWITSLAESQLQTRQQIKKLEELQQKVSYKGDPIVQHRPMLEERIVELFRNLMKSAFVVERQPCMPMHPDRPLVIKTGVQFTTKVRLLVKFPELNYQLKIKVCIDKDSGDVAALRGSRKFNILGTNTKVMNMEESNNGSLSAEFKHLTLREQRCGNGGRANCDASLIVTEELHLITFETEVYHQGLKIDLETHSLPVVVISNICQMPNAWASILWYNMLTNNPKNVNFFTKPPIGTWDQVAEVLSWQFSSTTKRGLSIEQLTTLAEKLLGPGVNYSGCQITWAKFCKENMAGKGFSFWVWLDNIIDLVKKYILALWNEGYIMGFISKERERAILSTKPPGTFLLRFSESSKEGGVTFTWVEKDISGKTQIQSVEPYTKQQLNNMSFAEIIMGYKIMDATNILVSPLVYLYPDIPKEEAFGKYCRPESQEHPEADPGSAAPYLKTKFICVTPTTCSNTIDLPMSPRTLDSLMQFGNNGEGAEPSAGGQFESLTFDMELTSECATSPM
UniProt P28827, residues 21-1452: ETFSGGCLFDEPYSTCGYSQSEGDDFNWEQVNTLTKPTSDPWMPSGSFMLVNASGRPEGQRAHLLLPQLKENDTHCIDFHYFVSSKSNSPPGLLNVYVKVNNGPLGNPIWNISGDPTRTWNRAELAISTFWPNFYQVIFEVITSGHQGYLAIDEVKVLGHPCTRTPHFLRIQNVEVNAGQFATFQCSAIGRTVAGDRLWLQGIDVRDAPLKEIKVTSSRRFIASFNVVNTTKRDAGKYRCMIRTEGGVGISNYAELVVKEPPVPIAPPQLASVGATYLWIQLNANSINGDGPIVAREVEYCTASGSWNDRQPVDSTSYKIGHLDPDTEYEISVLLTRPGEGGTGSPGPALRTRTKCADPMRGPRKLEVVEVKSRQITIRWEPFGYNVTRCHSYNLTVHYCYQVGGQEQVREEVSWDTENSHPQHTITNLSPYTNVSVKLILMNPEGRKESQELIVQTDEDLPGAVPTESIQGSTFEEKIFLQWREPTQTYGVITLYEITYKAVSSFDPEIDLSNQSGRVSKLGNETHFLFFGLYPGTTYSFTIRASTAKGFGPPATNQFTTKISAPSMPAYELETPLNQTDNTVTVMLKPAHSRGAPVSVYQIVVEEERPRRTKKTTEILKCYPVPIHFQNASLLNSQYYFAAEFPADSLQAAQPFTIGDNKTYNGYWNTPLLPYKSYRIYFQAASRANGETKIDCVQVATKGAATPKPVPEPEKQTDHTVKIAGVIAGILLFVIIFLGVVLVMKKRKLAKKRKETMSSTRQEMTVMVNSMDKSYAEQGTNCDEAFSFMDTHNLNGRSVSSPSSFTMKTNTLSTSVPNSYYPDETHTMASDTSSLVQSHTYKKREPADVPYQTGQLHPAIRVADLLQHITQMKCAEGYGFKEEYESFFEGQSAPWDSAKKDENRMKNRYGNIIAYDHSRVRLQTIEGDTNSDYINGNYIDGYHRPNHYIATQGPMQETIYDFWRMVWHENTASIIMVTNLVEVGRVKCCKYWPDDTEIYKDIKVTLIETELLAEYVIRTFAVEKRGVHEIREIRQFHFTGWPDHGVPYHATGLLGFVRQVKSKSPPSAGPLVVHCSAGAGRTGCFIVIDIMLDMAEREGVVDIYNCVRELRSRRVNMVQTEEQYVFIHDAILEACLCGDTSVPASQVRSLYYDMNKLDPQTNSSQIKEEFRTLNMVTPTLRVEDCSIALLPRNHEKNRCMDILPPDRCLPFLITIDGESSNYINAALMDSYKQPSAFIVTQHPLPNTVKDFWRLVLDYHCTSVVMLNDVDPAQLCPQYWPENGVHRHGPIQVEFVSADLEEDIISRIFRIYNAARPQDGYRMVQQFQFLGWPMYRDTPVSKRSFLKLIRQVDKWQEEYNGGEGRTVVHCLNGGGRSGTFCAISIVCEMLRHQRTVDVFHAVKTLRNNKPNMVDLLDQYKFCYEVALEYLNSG

Myc-DDK-tagged PTPRM (protein tyrosine phosphatase receptor mu) (from UniProt P28827 21-1452)
binding: no binding

Source: article PMC6949220
